Experimental data taken from paper PMC4016566.
These are yes or no findings as the source states them, for the method shown. For some of these results: Binding seen in cells or lysates may run through a third protein. Some entries that bind do so weakly or less than the wild type.

Sequences of proteins named here, by UniProt entry; tags and fusion partners are left off. Residues count along the entry.
UniProt Q15788: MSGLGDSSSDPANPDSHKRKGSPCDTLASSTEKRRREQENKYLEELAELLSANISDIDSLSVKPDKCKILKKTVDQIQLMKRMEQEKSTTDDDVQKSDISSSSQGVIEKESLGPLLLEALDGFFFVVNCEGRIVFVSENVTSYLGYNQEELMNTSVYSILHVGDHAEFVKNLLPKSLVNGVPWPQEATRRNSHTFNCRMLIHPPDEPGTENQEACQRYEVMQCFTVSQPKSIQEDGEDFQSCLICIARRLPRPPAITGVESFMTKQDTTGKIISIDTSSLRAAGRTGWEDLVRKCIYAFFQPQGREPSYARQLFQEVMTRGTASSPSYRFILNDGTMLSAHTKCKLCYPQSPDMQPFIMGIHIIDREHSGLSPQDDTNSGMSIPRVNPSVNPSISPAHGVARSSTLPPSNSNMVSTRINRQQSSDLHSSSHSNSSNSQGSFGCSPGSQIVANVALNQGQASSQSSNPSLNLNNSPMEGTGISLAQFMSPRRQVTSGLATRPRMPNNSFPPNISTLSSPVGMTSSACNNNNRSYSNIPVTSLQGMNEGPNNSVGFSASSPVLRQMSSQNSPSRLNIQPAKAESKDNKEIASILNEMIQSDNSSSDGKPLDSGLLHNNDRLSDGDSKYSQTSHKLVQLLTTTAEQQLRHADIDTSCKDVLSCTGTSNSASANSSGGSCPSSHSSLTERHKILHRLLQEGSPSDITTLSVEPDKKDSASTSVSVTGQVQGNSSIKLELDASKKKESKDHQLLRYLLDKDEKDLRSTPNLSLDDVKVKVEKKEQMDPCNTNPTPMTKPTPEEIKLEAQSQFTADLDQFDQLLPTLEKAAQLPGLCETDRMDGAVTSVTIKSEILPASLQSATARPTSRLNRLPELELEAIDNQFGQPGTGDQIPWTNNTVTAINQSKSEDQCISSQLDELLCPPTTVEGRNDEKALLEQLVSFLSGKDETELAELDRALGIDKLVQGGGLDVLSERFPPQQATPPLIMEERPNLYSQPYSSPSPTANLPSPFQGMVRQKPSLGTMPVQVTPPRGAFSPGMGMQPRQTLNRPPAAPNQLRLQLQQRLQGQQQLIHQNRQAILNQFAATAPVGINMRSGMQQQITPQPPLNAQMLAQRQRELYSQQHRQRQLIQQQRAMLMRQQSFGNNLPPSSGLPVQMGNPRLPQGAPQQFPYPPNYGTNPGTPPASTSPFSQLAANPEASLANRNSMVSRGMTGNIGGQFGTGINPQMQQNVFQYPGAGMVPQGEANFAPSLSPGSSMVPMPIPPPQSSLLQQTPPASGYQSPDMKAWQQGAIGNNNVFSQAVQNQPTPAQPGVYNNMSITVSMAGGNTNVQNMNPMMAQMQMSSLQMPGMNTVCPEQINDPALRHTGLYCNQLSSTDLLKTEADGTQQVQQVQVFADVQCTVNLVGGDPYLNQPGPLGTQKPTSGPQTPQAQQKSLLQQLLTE
UniProt P63165, residues 1-97: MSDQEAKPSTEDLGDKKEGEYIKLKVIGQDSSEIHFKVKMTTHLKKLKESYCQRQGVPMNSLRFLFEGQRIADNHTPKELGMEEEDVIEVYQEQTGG
UniProt P10275: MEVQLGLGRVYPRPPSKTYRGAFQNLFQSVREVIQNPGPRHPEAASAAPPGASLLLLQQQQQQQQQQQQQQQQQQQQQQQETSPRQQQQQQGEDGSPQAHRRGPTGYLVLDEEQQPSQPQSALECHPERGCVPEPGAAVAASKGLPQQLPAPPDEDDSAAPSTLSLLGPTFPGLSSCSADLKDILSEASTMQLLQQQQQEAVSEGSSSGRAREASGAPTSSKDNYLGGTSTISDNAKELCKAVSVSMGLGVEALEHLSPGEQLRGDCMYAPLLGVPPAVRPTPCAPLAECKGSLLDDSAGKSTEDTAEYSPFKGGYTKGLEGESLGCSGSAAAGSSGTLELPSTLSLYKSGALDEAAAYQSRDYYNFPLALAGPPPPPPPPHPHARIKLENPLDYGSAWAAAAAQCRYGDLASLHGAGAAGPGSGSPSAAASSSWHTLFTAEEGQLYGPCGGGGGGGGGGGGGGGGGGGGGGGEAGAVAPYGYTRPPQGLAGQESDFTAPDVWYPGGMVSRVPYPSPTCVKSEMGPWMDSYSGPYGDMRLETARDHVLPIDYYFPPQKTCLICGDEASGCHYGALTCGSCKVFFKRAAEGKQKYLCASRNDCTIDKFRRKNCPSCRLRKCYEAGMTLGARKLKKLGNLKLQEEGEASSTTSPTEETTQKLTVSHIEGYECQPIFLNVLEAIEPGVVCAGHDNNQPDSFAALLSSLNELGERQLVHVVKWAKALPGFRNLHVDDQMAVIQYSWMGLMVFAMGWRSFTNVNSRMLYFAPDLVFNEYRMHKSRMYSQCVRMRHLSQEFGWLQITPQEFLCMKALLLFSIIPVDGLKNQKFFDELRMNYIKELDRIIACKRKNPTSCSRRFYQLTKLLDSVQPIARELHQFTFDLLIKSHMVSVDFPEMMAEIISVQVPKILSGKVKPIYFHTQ
UniProt P03372: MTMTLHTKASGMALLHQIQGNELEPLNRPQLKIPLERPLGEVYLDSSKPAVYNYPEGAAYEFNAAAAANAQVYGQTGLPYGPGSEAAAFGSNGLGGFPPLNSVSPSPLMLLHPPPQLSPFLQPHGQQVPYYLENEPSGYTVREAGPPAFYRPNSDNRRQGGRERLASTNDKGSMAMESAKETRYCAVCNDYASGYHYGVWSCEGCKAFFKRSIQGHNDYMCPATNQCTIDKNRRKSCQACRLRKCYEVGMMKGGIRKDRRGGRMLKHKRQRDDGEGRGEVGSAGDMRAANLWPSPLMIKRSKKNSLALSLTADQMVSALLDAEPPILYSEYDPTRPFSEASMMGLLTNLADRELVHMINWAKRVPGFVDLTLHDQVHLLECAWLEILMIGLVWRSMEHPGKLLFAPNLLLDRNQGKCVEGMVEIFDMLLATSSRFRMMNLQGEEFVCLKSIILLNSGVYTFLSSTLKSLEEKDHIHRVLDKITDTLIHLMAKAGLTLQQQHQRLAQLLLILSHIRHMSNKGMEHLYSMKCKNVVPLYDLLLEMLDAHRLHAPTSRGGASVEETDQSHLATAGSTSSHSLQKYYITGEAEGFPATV

T1: four and a half LIM domains 2 (human (endogenous in SH-SY5Y)) (UniProt Q14192)
T1 sequence: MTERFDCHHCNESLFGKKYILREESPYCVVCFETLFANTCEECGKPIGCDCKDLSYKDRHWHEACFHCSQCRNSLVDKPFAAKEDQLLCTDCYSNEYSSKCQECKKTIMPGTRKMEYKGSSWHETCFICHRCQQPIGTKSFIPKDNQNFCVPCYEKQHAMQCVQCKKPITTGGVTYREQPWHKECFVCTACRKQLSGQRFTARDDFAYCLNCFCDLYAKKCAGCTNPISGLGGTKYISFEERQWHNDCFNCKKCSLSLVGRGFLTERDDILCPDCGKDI

T2: nuclear receptor coactivator 5 (human (endogenous in SH-SY5Y)) (UniProt Q9HCD5)
T2 sequence: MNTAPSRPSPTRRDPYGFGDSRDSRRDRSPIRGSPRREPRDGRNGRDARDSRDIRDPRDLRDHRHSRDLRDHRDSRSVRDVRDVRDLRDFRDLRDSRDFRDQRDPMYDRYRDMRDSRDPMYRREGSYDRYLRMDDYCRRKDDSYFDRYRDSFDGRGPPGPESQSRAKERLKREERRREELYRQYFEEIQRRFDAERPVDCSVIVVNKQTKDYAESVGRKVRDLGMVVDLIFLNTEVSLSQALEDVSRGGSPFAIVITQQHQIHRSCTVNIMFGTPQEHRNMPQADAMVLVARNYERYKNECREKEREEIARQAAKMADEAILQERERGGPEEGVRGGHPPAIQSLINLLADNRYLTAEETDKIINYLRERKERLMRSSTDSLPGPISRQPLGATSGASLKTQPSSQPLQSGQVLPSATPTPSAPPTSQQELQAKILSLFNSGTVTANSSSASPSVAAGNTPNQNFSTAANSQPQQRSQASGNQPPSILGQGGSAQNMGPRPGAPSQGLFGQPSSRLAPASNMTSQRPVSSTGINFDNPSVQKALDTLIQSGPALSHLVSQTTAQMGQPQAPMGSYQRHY


How the values were obtained:
[1] = biological target: T1, four and a half LIM domains 2 (human (endogenous in SH-SY5Y)); experiment: co-IP; SH-SY5Y whole-cell lysate incubated overnight at 4°C with Protein A/G magnetic beads cross-linked (disuccinimidyl suberate) to anti-NCOA1, anti-NCOA5, anti-SUMO1, anti-FHL2 or nonspecific IgG; western blot for AR (cells treated with 1 nM DHT, 2 h), ERα (1 nM E2, 2 h) or RORA
[2] = biological target: nuclear receptor coactivator 1 (human (endogenous in SH-SY5Y)) (UniProt Q15788); experiment: as above
[3] = biological target: T2, nuclear receptor coactivator 5 (human (endogenous in SH-SY5Y)); experiment: as above
[4] = biological target: T1, four and a half LIM domains 2 (human (endogenous in SH-SY5Y)); experiment: sequential chromatin immunoprecipitation (ChIP-reChIP); formaldehyde-fixed, enzymatically sheared SH-SY5Y chromatin (150 to 1,000 bp); first IP with anti-AR (1 nM DHT), anti-ERα (1 nM E2) or anti-RORA, second IP with anti-NCOA1, anti-NCOA5, anti-SUMO1 or anti-FHL2; qPCR or PCR of receptor binding sites in the RORA or CYP19A1 promoter
[5] = biological target: T2, nuclear receptor coactivator 5 (human (endogenous in SH-SY5Y)); experiment: as above
[6] = biological target: SUMO1 (SMT3 suppressor of mif two 3 homolog 1) (human (endogenous in SH-SY5Y)) (UniProt P63165); experiment: co-IP; SH-SY5Y whole-cell lysate incubated overnight at 4°C with Protein A/G magnetic beads cross-linked (disuccinimidyl suberate) to anti-NCOA1, anti-NCOA5, anti-SUMO1, anti-FHL2 or nonspecific IgG; western blot for AR (cells treated with 1 nM DHT, 2 h), ERα (1 nM E2, 2 h) or RORA
[7] = biological target: T1, four and a half LIM domains 2 (human (endogenous in SH-SY5Y)); experiment: as above; remark: listed apart in the source
[8] = biological target: T2, nuclear receptor coactivator 5 (human (endogenous in SH-SY5Y)); experiment: as above; remark: listed apart in the source
[9] = biological target: SUMO1 (SMT3 suppressor of mif two 3 homolog 1) (human (endogenous in SH-SY5Y)) (UniProt P63165); experiment: sequential chromatin immunoprecipitation (ChIP-reChIP); formaldehyde-fixed, enzymatically sheared SH-SY5Y chromatin (150 to 1,000 bp); first IP with anti-AR (1 nM DHT), anti-ERα (1 nM E2) or anti-RORA, second IP with anti-NCOA1, anti-NCOA5, anti-SUMO1 or anti-FHL2; qPCR or PCR of receptor binding sites in the RORA or CYP19A1 promoter
[10] = biological target: T1, four and a half LIM domains 2 (human (endogenous in SH-SY5Y)); experiment: as above; remark: listed apart in the source
[11] = biological target: T2, nuclear receptor coactivator 5 (human (endogenous in SH-SY5Y)); experiment: as above; remark: listed apart in the source

| binding [1] | binding [2] | binding [3] | binding [4] | binding [5] | binding [6] | binding [7] | binding [8] | binding [9] | binding [10] | binding [11] | Molecule |
| --- | --- | --- | --- | --- | --- | --- | --- | --- | --- | --- | --- |
| binds weakly | binds | binds |  |  |  |  |  |  |  |  | androgen receptor (from UniProt P10275 1-920) |
| binds |  | binds | binds | binds |  |  |  |  |  |  | estrogen receptor alpha (from UniProt P03372 1-595) |
|  |  |  |  |  | no binding | no binding | binds | no binding | no binding | binds | retinoic acid receptor-related orphan receptor alpha (protein, UniProt P35398 1-523) MESAPAAPDPAASEPGSSGADAAAGSRETPLNQESARKSEPPAPVRRQSYSSTSRGISVTKKTHTSQIEIIPCKICGDKSSGIHYGVITCEGCKGFFRRSQQSNATYSCPRQKNCLIDRTSRNRCQHCRLQKCLAVGMSRDAVKFGRMSKKQRDSLYAEVQKHRMQQQQRDHQQQPGEAEPLTPTYNISANGLTELHDDLSNYIDGHTPEGSKADSAVSSFYLDIQPSPDQSGLDINGIKPEPICDYTPASGFFPYCSFTNGETSPTVSMAELEHLAQNISKSHLETCQYLREELQQITWQTFLQEEIENYQNKQREVMWQLCAIKITEAIQYVVEFAKRIDGFMELCQNDQIVLLKAGSLEVVFIRMCRAFDSQNNTVYFDGKYASPDVFKSLGCEDFISFVFEFGKSLCSMHLTEDEIALFSAFVLMSADRSWLQEKVKIEKLQQKIQLALQHVLQKNHREDGILTKLICKVSTLRALCGRHTEKLMAFKAIYPDIVRLHFPPLYKELFTSEFEPAMQIDG |
